Article PMC4336329 (PLoS ONE, 2015)
The campaign covered roughly 310,000 compounds. About 2,200 (0.71%) showed an effect of 50% or more. Effects have a minus sign here. This is one part of the list.

Target: human ether-à-go-go-related gene (hERG) potassium channel (human, UniProt Q12809)
Test: primary screen, population patch clamp on CHO cells stably expressing hERG

Sequence of human ether-à-go-go-related gene (hERG) potassium channel (Q12809 whole entry, looked up): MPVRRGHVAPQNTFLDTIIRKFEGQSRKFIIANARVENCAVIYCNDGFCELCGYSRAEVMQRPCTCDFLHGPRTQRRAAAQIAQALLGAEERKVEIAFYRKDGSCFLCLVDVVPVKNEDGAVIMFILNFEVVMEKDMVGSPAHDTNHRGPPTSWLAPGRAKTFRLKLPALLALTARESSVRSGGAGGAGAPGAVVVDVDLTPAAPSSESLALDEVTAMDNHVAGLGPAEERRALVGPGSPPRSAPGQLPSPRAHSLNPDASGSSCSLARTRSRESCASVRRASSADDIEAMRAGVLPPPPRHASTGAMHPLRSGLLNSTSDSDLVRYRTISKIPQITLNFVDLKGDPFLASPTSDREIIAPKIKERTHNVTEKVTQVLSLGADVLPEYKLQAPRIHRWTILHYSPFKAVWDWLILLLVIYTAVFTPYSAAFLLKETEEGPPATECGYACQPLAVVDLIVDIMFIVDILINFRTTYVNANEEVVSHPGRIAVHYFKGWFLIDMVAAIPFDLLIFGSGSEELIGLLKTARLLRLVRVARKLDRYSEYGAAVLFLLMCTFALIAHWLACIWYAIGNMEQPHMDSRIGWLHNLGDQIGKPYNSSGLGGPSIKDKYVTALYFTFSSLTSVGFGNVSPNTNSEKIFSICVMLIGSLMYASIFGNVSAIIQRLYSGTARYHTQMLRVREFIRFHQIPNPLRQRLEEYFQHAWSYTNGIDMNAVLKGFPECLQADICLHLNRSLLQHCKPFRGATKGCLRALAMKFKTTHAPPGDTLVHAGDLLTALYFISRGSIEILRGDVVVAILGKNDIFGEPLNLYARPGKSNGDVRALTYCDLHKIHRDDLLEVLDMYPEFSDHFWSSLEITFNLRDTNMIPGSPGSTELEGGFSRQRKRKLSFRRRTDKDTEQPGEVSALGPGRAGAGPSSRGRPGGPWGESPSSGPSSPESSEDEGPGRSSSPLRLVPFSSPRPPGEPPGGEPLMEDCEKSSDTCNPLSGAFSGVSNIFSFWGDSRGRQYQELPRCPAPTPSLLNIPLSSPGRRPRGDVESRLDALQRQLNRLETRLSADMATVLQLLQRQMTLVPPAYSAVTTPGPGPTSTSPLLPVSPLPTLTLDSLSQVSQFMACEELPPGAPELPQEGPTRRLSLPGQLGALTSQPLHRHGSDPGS

SMILES	hERG current change (%, negative = inhibition) at 1uM
ClCC1CN(Cc2ccccc2Cl)CCO1 (stereo not drawn)	14.1%
Nc1c(C(=O)Nc2nccs2)sc2nc(-c3cccs3)cc(C(F)(F)F)c12	17.2%
CCOC(=O)C1=C(C)N(c2ccccc2)C(=O)NC1c1cccc([N+](=O)[O-])c1 (stereo not drawn)	-5.01%
CCOc1ccc(C(=O)C[n+]2cccc3cc(C)ccc32)cc1.[Br-]	6.54%
CCOC(=O)CSc1nc2c(c(=O)[nH]c(=O)n2C)n1Cc1ccccc1	-0.8%
O=C(Nc1ccc(Oc2ccccc2)cc1)C1CCCO1 (stereo not drawn)	5.59%
NC(=O)[C@H]1CC2(CC(c3cccc(NC(=O)COc4ccc(Cl)cc4)c3)=NO2)CN1C(=O)c1ccc(Cl)cc1 (stereo partly drawn)	6.47%
CCOC(=O)CSc1nc(N)nc(C)c1Br	-3.35%
CCOC(=O)N1CC=C2C(C#N)=C(N)C(C#N)(C#N)[C@H](c3ccsc3)[C@H]2C1	11.7%
CCN1C(=O)/C(=C\c2nc3ccccc3c(=O)n2CC)c2ccccc21	4.8%
CCOC(=O)N1CCN(C(=O)C(CC(C)C)NS(=O)(=O)c2ccc3c(c2)oc(=O)n3C)CC1 (stereo not drawn)	-2.28%
COc1ccc(CCC(=O)N(C)CC(=O)Nc2ccc(Cl)c(C(F)(F)F)c2)cc1	21.5%
COc1ccc(N2CC(C(=O)Nc3ccc(S(=O)(=O)N4CCCC4)cc3)CC2=O)cc1 (stereo not drawn)	10.6%
O=c1[nH]c2ccccc2cc1CN(Cc1cccnc1)S(=O)(=O)c1ccc([N+](=O)[O-])cc1	-5.07%
COc1ccccc1N1CCN(CC(=O)c2c(C)[nH]c3cc(C)ccc23)CC1	14.3%
Cc1cccc(Oc2ccc(NC(=O)C3CC=CCC3C(=O)O)cc2)c1 (stereo not drawn)	10.5%
O=C1CC(N(Cc2ccc3c(c2)OCO3)C(=O)Nc2ccc(F)cc2)C(=O)N1c1ccccc1 (stereo not drawn)	8.79%
CCOC(=O)c1oc2ccccc2c1NC(=O)CCl	9.91%
Cc1ccc(/C=C2\C(=O)ON=C2c2ccccc2)o1	13.3%
Cc1ccc(NC(=O)C2COc3ccccc3O2)cc1S(=O)(=O)N1CCOCC1 (stereo not drawn)	3.14%
CCc1ccc(CNC(=O)Cn2nc(-c3ccccc3)ccc2=O)cc1	8.46%
COc1ccc(CCNc2ncnc3nc[nH]c23)cc1OC	6.4%
O=C(COc1ccc2ccccc2c1)Nc1ccc(Cc2ccncc2)cc1	13%

SMILES	hERG current change (%, negative = inhibition) at 1uM
O=c1c(Cl)c(NCc2ccccc2)cnn1C12CC3CC(CC(C3)C1)C2	-5.22%
CN(C)S(=O)(=O)n1cc(/C=C(\NC(=O)c2ccccc2)C(=O)N2CCOCC2)c2ccccc21	15.1%
COc1cc2[nH]c(=O)n3nc(-c4ccccc4)nc3c2cc1OC	-6.85%
COc1ccccc1NC(=O)Nc1ccc2c(c1)nc(C)n2C	0.679%
C#CCOc1ccc(Cl)cc1/C=N/O	7.06%
CC(=O)Nc1ccc(NC(=O)C2CC(=O)N(Cc3ccccc3)C2)cc1 (stereo not drawn)	3.46%
COc1ccccc1C(=O)OCC(=O)c1cccc([N+](=O)[O-])c1	14.1%
Cc1ccccc1NC(=S)Nc1cccc([N+](=O)[O-])c1	13.8%
COc1ccccc1NC(=O)CSc1ccc2nnc(-c3ccncc3)n2n1	-7.81%
Cc1ccc(C(C(=O)NCC2CCCO2)N(C(=O)c2snc(C(N)=O)c2N)c2ccccc2)o1 (stereo not drawn)	11%
CCCCOC(=O)/C=C/c1c(C)[nH]c(=O)[nH]c1=O	-7.74%
O=C1Nc2ccc(Cl)cc2C12OCCCO2	13.9%
CCOC(=O)C1(C)/C(=N/Nc2ccc(S(N)(=O)=O)cc2)C(=O)C(=O)N1c1ccccc1 (stereo not drawn)	9.34%
CC(Sc1ccccn1)C(=O)Nc1ccc(S(N)(=O)=O)cc1 (stereo not drawn)	16.2%
COc1cccc(OCCN2CCN(c3ncnc4c3cnn4-c3ccccc3)CC2)c1	5.37%
O=C1NCC(=O)N2CCC[C@@H]12	-2.55%
CCCn1c(NCc2ccc3c(c2)OCO3)nc2ccccc21	13.9%
O=C1CCC(C(=O)Nc2ccc(OC(F)F)cc2)N1 (stereo not drawn)	5.68%
Cc1ccc(Sc2ncccc2C(=O)O)c(C)c1	11.2%
CC(=O)c1ccc(Nc2nc(-c3cccnc3)cs2)cc1	11.4%
O=C(NCCN1CCCC1)C1(S(=O)(=O)c2ccc(Cl)cc2)CC1	6.96%
O=C(Cc1ccccc1)N/N=C/c1cc(Br)cs1	15.1%
